In the supplement of paper PMC8728848:
Some of the results follow.

What was measured:
Assay in all cases: glycan array binding signal (z-score within array); higher = stronger binding
Details in all cases: glycan notation: IUPAC condensed, linker removed
Fuc(a1-2)Gal = biological target: Fuc(a1-2)Gal
How it was run: (§1)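 Columns mapping to the same glycan were averaged after glycan names were converted to IUPAC-condensed notation. The data come from 3228 arrays in the Consortium for Functional Glycomics database, limited to those with an available protein sequence. Binding is reported as a within-array Z-score averaged across arrays of one protein sequence and across linkers.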

Fuc(a1-2)Gal(b1-3)GalNAc = biological target: Fuc(a1-2)Gal(b1-3)GalNAc
How it was run: as §1

[1] = biological target: Fuc(a1-2)Gal(b1-3)GalNAc(b1-3)Gal
How it was run: as §1

[2] = biological target: Fuc(a1-2)Gal(b1-3)GalNAc(b1-3)Gal(a1-4)Gal(b1-4)Glc
How it was run: as §1

[3] = biological target: Fuc(a1-2)Gal(b1-3)GalNAc(b1-4)[Neu5Ac(a2-3)]Gal(b1-4)Glc
How it was run: as §1

Fuc(a1-2)Gal(b1-3)GlcNAc = biological target: Fuc(a1-2)Gal(b1-3)GlcNAc
How it was run: as §1

[4] = biological target: Fuc(a1-2)Gal(b1-3)GlcNAc(b1-3)Gal(b1-4)Glc
How it was run: as §1

[5] = biological target: Fuc(a1-2)Gal(b1-3)[Fuc(a1-4)]GlcNAc
How it was run: as §1

Fuc(a1-2)Gal(b1-4)Glc = biological target: Fuc(a1-2)Gal(b1-4)Glc
How it was run: as §1

Fuc(a1-2)Gal(b1-4)Glc6S = biological target: Fuc(a1-2)Gal(b1-4)Glc6S
How it was run: as §1

Fuc(a1-2)Gal(b1-4)GlcNAc = biological target: Fuc(a1-2)Gal(b1-4)GlcNAc
How it was run: as §1

[6] = biological target: Fuc(a1-2)Gal(b1-4)GlcNAc(b1-3)Gal(b1-4)GlcNAc
How it was run: as §1

[7] = biological target: Fuc(a1-2)Gal(b1-4)GlcNAc(b1-3)Gal(b1-4)GlcNAc(b1-3)Gal(b1-4)GlcNAc
How it was run: as §1

[8] = biological target: Fuc(a1-2)Gal(b1-4)GlcNAc6S
How it was run: as §1

[9] = biological target: Fuc(a1-2)Gal(b1-4)[Fuc(a1-3)]GlcNAc
How it was run: as §1

[10] = biological target: Fuc(a1-2)Gal(b1-4)[Fuc(a1-3)]GlcNAc(b1-3)Gal(b1-4)[Fuc(a1-3)]GlcNAc
How it was run: as §1

[11] = biological target: Fuc(a1-2)Gal(b1-4)[Fuc(a1-3)]GlcNAc(b1-3)Gal(b1-4)[Fuc(a1-3)]GlcNAc(b1-3)Gal(b1-4)[Fuc(a1-3)]GlcNAc
How it was run: as §1

Fuc(a1-2)Gal6S(b1-4)Glc = biological target: Fuc(a1-2)Gal6S(b1-4)Glc
How it was run: as §1

[12] = biological target: Fuc(a1-2)Gal6S(b1-4)Glc6S
How it was run: as §1

[13] = biological target: Fuc(a1-2)Gal6S(b1-4)GlcNAc
How it was run: as §1

Fuc(a1-2)GlcNAc = biological target: Fuc(a1-2)GlcNAc
How it was run: as §1

Fuc(a1-2)[Gal(a1-3)]Gal = biological target: Fuc(a1-2)[Gal(a1-3)]Gal
How it was run: as §1

[14] = biological target: Fuc(a1-2)[Gal(a1-3)]Gal(b1-3)GlcNAc
How it was run: as §1

[15] = biological target: Fuc(a1-2)[Gal(a1-3)]Gal(b1-4)Glc
How it was run: as §1

[16] = biological target: Fuc(a1-2)[Gal(a1-3)]Gal(b1-4)GlcNAc
How it was run: as §1

[17] = biological target: Fuc(a1-2)[Gal(a1-3)]Gal(b1-4)[Fuc(a1-3)]GlcNAc
How it was run: as §1

[18] = biological target: Fuc(a1-2)[Gal(a1-4)]Gal(b1-4)GlcNAc
How it was run: as §1

[19] = biological target: Fuc(a1-2)[GalNAc(a1-3)]Gal
How it was run: as §1

[20] = biological target: Fuc(a1-2)[GalNAc(a1-3)]Gal(b1-3)GlcNAc
How it was run: as §1

[21] = biological target: Fuc(a1-2)[GalNAc(a1-3)]Gal(b1-4)Glc
How it was run: as §1

B1: L-Selectin (Mus musculus), P18337 (protein)
chain: MVFPWRCEGTYWGSRNILKLWVWTLLCCDFLIHHGTHCWTYHYSEKPMNWENARKFCKQNYTDLVAIQNKREIEYLENTLPKSPYYYWIGIRKIGKMWTWVGTNKTLTKEAENWGAGEPNNKKSKEDCVEIYIKRERDSGKWNDDACHKRKAALCYTASCQPGSCNGRGECVETINNHTCICDAGYYGPQCQYVVQCEPLEAPELGTMDCIHPLGNFSFQSKCAFNCSEGRELLGTAETQCGASGNWSSPEPICQVVQCEPLEAPELGTMDCIHPLGNFSFQSKCAFNCSEGRELLGTAETQCGASGNWSSPEPICQETNRSFSKIKEGDYNPLFIPVAVMVTAFSGLAFLIWLARRLKKGKKSQERMDDPY
glycan array binding signal (z-score) (Fuc(a1-2)Gal): -0.197 | glycan array binding signal (z-score) (Fuc(a1-2)Gal(b1-3)GalNAc): -0.486 | glycan array binding signal (z-score) [1]: -0.286 | glycan array binding signal (z-score) [2]: -0.383 | glycan array binding signal (z-score) [3]: -0.191 | glycan array binding signal (z-score) (Fuc(a1-2)Gal(b1-3)GlcNAc): -0.53 | glycan array binding signal (z-score) [4]: -0.225 | glycan array binding signal (z-score) [5]: -0.466 | glycan array binding signal (z-score) (Fuc(a1-2)Gal(b1-4)Glc): -0.154 | glycan array binding signal (z-score) (Fuc(a1-2)Gal(b1-4)Glc6S): 0.005 | glycan array binding signal (z-score) (Fuc(a1-2)Gal(b1-4)GlcNAc): -0.304 | glycan array binding signal (z-score) [6]: -0.341 | glycan array binding signal (z-score) [7]: -0.485 | glycan array binding signal (z-score) [8]: -0.448 | glycan array binding signal (z-score) [9]: -0.243 | glycan array binding signal (z-score) [10]: -0.328 | glycan array binding signal (z-score) [11]: 0.041 | glycan array binding signal (z-score) (Fuc(a1-2)Gal6S(b1-4)Glc): 0.379 | glycan array binding signal (z-score) [12]: 1.21 | glycan array binding signal (z-score) [13]: -0.072 | glycan array binding signal (z-score) (Fuc(a1-2)GlcNAc): -0.484 | glycan array binding signal (z-score) (Fuc(a1-2)[Gal(a1-3)]Gal): -0.228 | glycan array binding signal (z-score) [14]: -0.274 | glycan array binding signal (z-score) [15]: -0.253 | glycan array binding signal (z-score) [16]: -0.154 | glycan array binding signal (z-score) [17]: -0.151 | glycan array binding signal (z-score) [18]: -0.208 | glycan array binding signal (z-score) [19]: -0.448 | glycan array binding signal (z-score) [20]: -0.275 | glycan array binding signal (z-score) [21]: -0.194
